{
  "source": "PubChem BioAssay AID1745853",
  "about": "(National Center for Advancing Translational Sciences (NCATS), 2022)",
  "assay_in_all_cases": "Primary Screen for Target Class Profiling of Small Molecule Inhibitors of Methyltransferases",
  "key": {"[1]": {"biological_target": "Glycine N-methyltransferase (Homo sapiens) (UniProt Q14749)", "settings": "purified enzyme, MTase-Glo SAH luminescence; measured here: GNMT inhibition; at 40 µM; stronger effect = lower value", "in_short": "(§1)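 Each enzyme was reacted with SAM and its substrate, with compounds tested once at 40 uM; SAH formed was read by MTase-Glo luminescence.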"}, "[2]": {"biological_target": "Guanidinoacetate N-methyltransferase (Homo sapiens) (UniProt Q14353)", "settings": "purified enzyme, MTase-Glo SAH luminescence; measured here: GAMT inhibition; at 40 µM; stronger effect = lower value", "in_short": "as §1"}, "[3]": {"biological_target": "Histamine N-methyltransferase (Homo sapiens) (UniProt P50135)", "settings": "purified enzyme, MTase-Glo SAH luminescence; measured here: HNMT inhibition; at 40 µM; stronger effect = lower value", "in_short": "as §1"}, "[4]": {"biological_target": "Nicotinamide N-methyltransferase (Homo sapiens) (UniProt P40261)", "settings": "purified enzyme, MTase-Glo SAH luminescence; measured here: NNMT inhibition; at 40 µM; stronger effect = lower value", "in_short": "as §1"}, "[5]": {"biological_target": "Phenylethanolamine N-methyltransferase (Homo sapiens) (UniProt P11086)", "settings": "purified enzyme, MTase-Glo SAH luminescence; measured here: PNMT inhibition; at 40 µM; stronger effect = lower value", "in_short": "as §1"}},
  "note": "The list shows a part of the results. Shown are side measurements of this screen, not its main read-out; they come without a call. % is set by controls: 0 for no effect and ±100 for the full control effect.",
  "data": [
    {"smiles": "COCCN1CC2CN(C(=O)CCCc3ccccc3)CC(C1)O2", "values": [
      {"measurement": "activity change, negative = inhibition", "setting": "[1]", "result": -5.32, "unit": "%"},
      {"measurement": "activity change, negative = inhibition", "setting": "[2]", "result": -7.01, "unit": "%"},
      {"measurement": "activity change, negative = inhibition", "setting": "[3]", "result": -2.99, "unit": "%"},
      {"measurement": "activity change, negative = inhibition", "setting": "[4]", "result": -12.9, "unit": "%"},
      {"measurement": "activity change, negative = inhibition", "setting": "[5]", "result": -7.94, "unit": "%"}
    ]},
    {"smiles": "COc1ccc2c(c1)c(NC(C)=O)c1n2CC(C)(C(=O)NC2CCCCC2)N(CCN(C)C)C1=O", "note": "(stereo not given)", "values": [
      {"measurement": "activity change, negative = inhibition", "setting": "[1]", "result": 1.23, "unit": "%"},
      {"measurement": "activity change, negative = inhibition", "setting": "[2]", "result": 0, "unit": "%"},
      {"measurement": "activity change, negative = inhibition", "setting": "[3]", "result": 3.81, "unit": "%"},
      {"measurement": "activity change, negative = inhibition", "setting": "[4]", "result": 9.86, "unit": "%"},
      {"measurement": "activity change, negative = inhibition", "setting": "[5]", "result": 0.098, "unit": "%"}
    ]},
    {"smiles": "COc1ccc(C(=O)N2CCC(c3noc(-c4ccncc4)n3)C2)cn1", "note": "(stereo not given)", "values": [
      {"measurement": "activity change, negative = inhibition", "setting": "[1]", "result": -5.9, "unit": "%"},
      {"measurement": "activity change, negative = inhibition", "setting": "[2]", "result": -11.8, "unit": "%"},
      {"measurement": "activity change, negative = inhibition", "setting": "[3]", "result": -4.76, "unit": "%"},
      {"measurement": "activity change, negative = inhibition", "setting": "[4]", "result": -16.9, "unit": "%"},
      {"measurement": "activity change, negative = inhibition", "setting": "[5]", "result": -21.8, "unit": "%"}
    ]},
    {"smiles": "CC1(C(=O)NC2CCCCCC2)Cn2c(cc3occc32)C(=O)N1CC1CCCO1", "note": "(stereo not given)", "values": [
      {"measurement": "activity change, negative = inhibition", "setting": "[1]", "result": -1.45, "unit": "%"},
      {"measurement": "activity change, negative = inhibition", "setting": "[2]", "result": 3.31, "unit": "%"},
      {"measurement": "activity change, negative = inhibition", "setting": "[3]", "result": -0.493, "unit": "%"},
      {"measurement": "activity change, negative = inhibition", "setting": "[4]", "result": -0.496, "unit": "%"},
      {"measurement": "activity change, negative = inhibition", "setting": "[5]", "result": -2.14, "unit": "%"}
    ]},
    {"smiles": "CC(=O)N1CCCC(c2nn(-c3cccc(Cl)c3)c(=O)[nH]2)C1", "note": "(stereo not given)", "values": [
      {"measurement": "activity change, negative = inhibition", "setting": "[1]", "result": -4.6, "unit": "%"},
      {"measurement": "activity change, negative = inhibition", "setting": "[2]", "result": -3.62, "unit": "%"},
      {"measurement": "activity change, negative = inhibition", "setting": "[3]", "result": -1.3, "unit": "%"},
      {"measurement": "activity change, negative = inhibition", "setting": "[4]", "result": -11.1, "unit": "%"},
      {"measurement": "activity change, negative = inhibition", "setting": "[5]", "result": -22.6, "unit": "%"}
    ]},
    {"smiles": "CC1(C(=O)NC2CCCCC2)Cn2nc(-c3cccs3)cc2C(=O)N1c1cccc(Cl)c1", "note": "(stereo not given)", "values": [
      {"measurement": "activity change, negative = inhibition", "setting": "[1]", "result": -15.8, "unit": "%"},
      {"measurement": "activity change, negative = inhibition", "setting": "[2]", "result": 0.641, "unit": "%"},
      {"measurement": "activity change, negative = inhibition", "setting": "[3]", "result": -5.15, "unit": "%"},
      {"measurement": "activity change, negative = inhibition", "setting": "[4]", "result": -5.27, "unit": "%"},
      {"measurement": "activity change, negative = inhibition", "setting": "[5]", "result": -8.05, "unit": "%"}
    ]},
    {"smiles": "CC(=O)N1CCC(C(=O)N[C@H]2CCN3C(=O)N(c4ccc(OC(F)(F)F)cc4)C(=O)[C@@H]3C2)CC1", "values": [
      {"measurement": "activity change, negative = inhibition", "setting": "[1]", "result": 1.31, "unit": "%"},
      {"measurement": "activity change, negative = inhibition", "setting": "[2]", "result": 0.684, "unit": "%"},
      {"measurement": "activity change, negative = inhibition", "setting": "[3]", "result": 2.74, "unit": "%"},
      {"measurement": "activity change, negative = inhibition", "setting": "[4]", "result": -2.08, "unit": "%"},
      {"measurement": "activity change, negative = inhibition", "setting": "[5]", "result": 1.51, "unit": "%"}
    ]},
    {"smiles": "COc1ccc(C)cc1NS(=O)(=O)c1ccc2[nH]c(=O)[nH]c2c1", "values": [
      {"measurement": "activity change, negative = inhibition", "setting": "[1]", "result": -5.74, "unit": "%"},
      {"measurement": "activity change, negative = inhibition", "setting": "[2]", "result": 5.48, "unit": "%"},
      {"measurement": "activity change, negative = inhibition", "setting": "[3]", "result": 4.01, "unit": "%"},
      {"measurement": "activity change, negative = inhibition", "setting": "[4]", "result": 7.46, "unit": "%"},
      {"measurement": "activity change, negative = inhibition", "setting": "[5]", "result": -8.18, "unit": "%"}
    ]},
    {"smiles": "COc1ccc(OC)c2c1cc1n2CC(C)(C(=O)NC2CCCC(C)C2C)N(Cc2ccco2)C1=O", "note": "(stereo not given)", "values": [
      {"measurement": "activity change, negative = inhibition", "setting": "[1]", "result": -1.61, "unit": "%"},
      {"measurement": "activity change, negative = inhibition", "setting": "[2]", "result": 4.44, "unit": "%"},
      {"measurement": "activity change, negative = inhibition", "setting": "[3]", "result": -3.69, "unit": "%"},
      {"measurement": "activity change, negative = inhibition", "setting": "[4]", "result": -3.31, "unit": "%"},
      {"measurement": "activity change, negative = inhibition", "setting": "[5]", "result": -2.52, "unit": "%"}
    ]},
    {"smiles": "CC(C)OCCCNC(=O)C1CCCN(S(=O)(=O)c2cn(C)cn2)CCC(=O)NCC1", "note": "(stereo not given)", "values": [
      {"measurement": "activity change, negative = inhibition", "setting": "[1]", "result": -0.856, "unit": "%"},
      {"measurement": "activity change, negative = inhibition", "setting": "[2]", "result": -1.67, "unit": "%"},
      {"measurement": "activity change, negative = inhibition", "setting": "[3]", "result": 0.772, "unit": "%"},
      {"measurement": "activity change, negative = inhibition", "setting": "[4]", "result": -4.11, "unit": "%"},
      {"measurement": "activity change, negative = inhibition", "setting": "[5]", "result": 0.064, "unit": "%"}
    ]},
    {"smiles": "O=c1c2ccccc2n2c(=O)n(Cc3ccc(F)cc3)nc2n1Cc1ccc(F)cc1", "values": [
      {"measurement": "activity change, negative = inhibition", "setting": "[1]", "result": 5.32, "unit": "%"},
      {"measurement": "activity change, negative = inhibition", "setting": "[2]", "result": 1.64, "unit": "%"},
      {"measurement": "activity change, negative = inhibition", "setting": "[3]", "result": 6.33, "unit": "%"},
      {"measurement": "activity change, negative = inhibition", "setting": "[4]", "result": 5.13, "unit": "%"},
      {"measurement": "activity change, negative = inhibition", "setting": "[5]", "result": 3.94, "unit": "%"}
    ]},
    {"smiles": "CC(C)c1noc([C@@H]2C[C@@H](O)CN2Cc2cc3ccccc3o2)n1", "values": [
      {"measurement": "activity change, negative = inhibition", "setting": "[1]", "result": -5.2, "unit": "%"},
      {"measurement": "activity change, negative = inhibition", "setting": "[2]", "result": -10.4, "unit": "%"},
      {"measurement": "activity change, negative = inhibition", "setting": "[3]", "result": -1.94, "unit": "%"},
      {"measurement": "activity change, negative = inhibition", "setting": "[4]", "result": -6.28, "unit": "%"},
      {"measurement": "activity change, negative = inhibition", "setting": "[5]", "result": -4.58, "unit": "%"}
    ]},
    {"smiles": "O=C(NCc1ccccc1)C1CCCN1c1nccc(Nc2ccccc2F)n1", "note": "(stereo not given)", "values": [
      {"measurement": "activity change, negative = inhibition", "setting": "[1]", "result": -4.3, "unit": "%"},
      {"measurement": "activity change, negative = inhibition", "setting": "[2]", "result": -3.58, "unit": "%"},
      {"measurement": "activity change, negative = inhibition", "setting": "[3]", "result": -2.26, "unit": "%"},
      {"measurement": "activity change, negative = inhibition", "setting": "[4]", "result": -11.9, "unit": "%"},
      {"measurement": "activity change, negative = inhibition", "setting": "[5]", "result": 0.62, "unit": "%"}
    ]},
    {"smiles": "O=C(O)C1=CCNCC1", "values": [
      {"measurement": "activity change, negative = inhibition", "setting": "[1]", "result": 6.88, "unit": "%"},
      {"measurement": "activity change, negative = inhibition", "setting": "[2]", "result": 7.43, "unit": "%"},
      {"measurement": "activity change, negative = inhibition", "setting": "[3]", "result": 11.9, "unit": "%"},
      {"measurement": "activity change, negative = inhibition", "setting": "[4]", "result": -8.81, "unit": "%"},
      {"measurement": "activity change, negative = inhibition", "setting": "[5]", "result": -3.05, "unit": "%"}
    ]}
  ]
}
